# Source: PMC6919601, “Identification of Plasmodium dipeptidyl aminopeptidase allosteric inhibitors by high throughput screening” (PLoS ONE, 2019)
# Where “and” joins values, the source holds several entries; their conditions need not be identical. Equal values may be shown once. Out of some 110,000 compounds screened, about 230 (0.21%) showed an effect of 50% or more. Some of the results follow.
# Target: DPAP1 (Plasmodium falciparum, UniProt Q8IIJ9)
# Assay: primary screen, percent inhibition; read by cleavage of a fluorogenic dipeptide substrate; higher = more effect of the substance
# Parameters: species or system P. falciparum D10 trophozoite lysates; single well
# 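Also: 30 min substrate incubation versus DMSO and 10 µM JCP410 controls.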
# Sequence of DPAP1 (Q8IIJ9 whole entry, looked up): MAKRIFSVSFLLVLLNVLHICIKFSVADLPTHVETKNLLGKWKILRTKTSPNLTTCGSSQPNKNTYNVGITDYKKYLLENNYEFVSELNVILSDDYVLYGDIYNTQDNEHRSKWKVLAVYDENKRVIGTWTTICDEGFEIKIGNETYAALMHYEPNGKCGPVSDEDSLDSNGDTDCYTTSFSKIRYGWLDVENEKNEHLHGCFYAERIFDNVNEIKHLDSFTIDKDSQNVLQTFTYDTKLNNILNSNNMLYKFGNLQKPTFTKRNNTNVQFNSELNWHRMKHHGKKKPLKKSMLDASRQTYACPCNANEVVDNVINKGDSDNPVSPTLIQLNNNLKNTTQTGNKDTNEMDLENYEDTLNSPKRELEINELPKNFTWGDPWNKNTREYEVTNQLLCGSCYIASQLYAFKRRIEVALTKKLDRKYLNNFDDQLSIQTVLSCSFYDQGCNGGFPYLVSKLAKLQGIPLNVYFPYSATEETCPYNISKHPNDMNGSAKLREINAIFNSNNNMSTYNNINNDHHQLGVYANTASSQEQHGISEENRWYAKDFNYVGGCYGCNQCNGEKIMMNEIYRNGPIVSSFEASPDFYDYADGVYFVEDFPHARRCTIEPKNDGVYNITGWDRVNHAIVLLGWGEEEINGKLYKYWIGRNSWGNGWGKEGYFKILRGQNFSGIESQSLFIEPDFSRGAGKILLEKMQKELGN
row,SMILES,% Inhibition @ 10 uM
1,COCCCNC(=O)Cc1c(C(=O)O)[nH]c2ccc(Cl)cc12,-1.59%
2,COc1cc(NC(=O)Nc2ccc(Cl)cc2)cc(OC)c1,3.8%
3,O=C(N[C@H](/C=C/S(=O)(=O)c1ccccc1)CCc1ccccc1)[C@H](CS(=O)(=O)Cc1ccccc1)NC(=O)N1CCOCC1,-3.49%
4,COc1ccc(C2C3CCc4cc(OC)ccc4C3=NN2C(C)=O)cc1 (centres unmarked),-6.11%
5,COc1cccc(CN2C(=O)c3cccc(N)c3C2=O)c1,-1.57%
6,O=C(O)c1ccc2cc(-c3ccccc3)[nH]c2c1,-5.1%
7,C=CCOC(=O)C1=C(C)N=C2CCCC(O)=C2C1c1cccc(Cl)c1 (centres unmarked),-6%
8,O=C(/C(=C(\O)c1ccccc1)[n+]1ccc2ccccc2c1)c1ccc(Cl)cc1,0.343%
9,Cc1ccc(NC(=O)CN2C(=O)S/C(=C\c3ccccc3C)C2=O)cc1,-5.4%
10,CC(=O)c1cccc(NC(=O)c2scc3c2CCCC3)c1,-1.06%
11,COc1ccc(C2CC(=O)Nc3ccc4ccccc4c32)c(OC)c1 (centres unmarked),4.07%
12,COc1ccc(C(CC(=O)O)NC(=O)Cc2ccc(Cl)cc2)cc1 (centres unmarked),0.248%
13,CS(=O)(=O)N(CC(=O)N1CCOCC1)c1cc(Cl)cc(Cl)c1,-8.76%
14,CC(=O)N1c2ccccc2N=C2CC(C)(C)CC(O)=C2C1c1cccc(Br)c1 (centres unmarked),0.674%
15,N#CC1=C(N)Oc2c(c(O)nc3ccccc23)C1c1ccc(C(F)(F)F)cc1 (centres unmarked),-4.04%
16,CCc1nnc(NC(=O)Cn2ncc3c2-c2cc(C)ccc2OC3)s1,1.77%
17,Cc1c(C(=O)Nc2nc3ccccc3s2)sc2ncn(CC(=O)N3CC(C)CC(C)C3)c(=O)c12 (centres unmarked),1.2%
18,O=C(CCCc1ccccc1)NCc1cn2ccsc2n1,5.65%
19,COc1cccc(-c2cc(C(F)(F)F)nc(-n3nnnc3C)n2)c1,1.82%
20,COCCCNC(=O)/C(C#N)=C/c1c(Oc2cccc(C)c2C)nc2ccccn2c1=O,-5.1%
21,CC(NC(=O)C1CCCN(C(=O)N(C)C)C1)c1ccccc1 (centres unmarked),-2.99%
22,COc1ccc(N(CC(=O)Nc2ccc(C)c(C)c2)S(=O)(=O)c2ccc(NC(C)=O)cc2)cc1,2.02%
23,c1ccc2sc(Cc3nn[nH]n3)nc2c1,2.28%
24,CC1CCN(c2nc3c(c(=O)n(C)c(=O)n3C)n2Cc2ccc(Cl)c(Cl)c2)CC1,3.6%
25,O=C(NCCN1CCOCC1)c1noc2c1CCCC2,-4.02%

row,SMILES,% Inhibition @ 10 uM
1,CC1(C)CC2=NCN(Cc3ccc4c(c3)OCO4)CC2=C(O)C1,0.032%
2,Cc1cc(C(F)F)n2ncc(C(=O)N3CCOCC3)c2n1,0.431%
3,COc1ccc(C)cc1N(CC(=O)NCc1ccccc1)S(C)(=O)=O,-1.61%
4,CC1=C(C(=O)Nc2ccc(F)cc2F)C(c2cccs2)C2=C(O)CC(c3ccccc3)CC2=N1 (centres unmarked),-4.76%
5,CCN1CCN(C(=O)CCn2cnc3onc(-c4ccc(F)cc4)c3c2=O)CC1,-1.24%
6,CCCn1cnc2cc(NCc3nc4ccccc4n3C)ccc21,-2.67%
7,COc1ccccc1-c1nc2s/c(=C\c3ccc(OCC(N)=O)cc3)c(=O)n2n1,0.561%
8,COc1ccccc1C(=O)N1CCC2(CC1)N=C(c1ccc(C(C)(C)C)cc1)C(=O)N2,8.77%
9,CC(=O)c1c(C)[nH]c(C(=O)Nc2nccs2)c1C,-0.499%
10,O[C@]12CCCC[C@@H]1[C@@H](c1ccccc1)NCC2,3.32%
11,COc1cccc(CN2C(=O)c3ccccc3C(C(=O)O)C2c2cccc(OC)c2O)c1 (centres unmarked),-4.9%
12,O=C(c1ccccc1)N1CCCC(C(=O)N2CCC(Cc3ccccc3)CC2)C1 (centres unmarked),-4.84%
13,O=C(c1ccccc1)C(CN1CCCC1)c1ccccc1 (centres unmarked),1.43%
14,O=C(O)c1ccc(N2C(=O)c3ccc(Br)cc3C2=O)cc1O,-3.13%
15,CCOc1ccc(C(=O)NCc2cn3cccc(C)c3n2)cc1,4.67%
16,COc1ccc(C2OC(C)CN(C(=O)c3ccc4c(c3)OCO4)O2)cc1 (centres unmarked),-6.18%
17,CC1(C)CC(=O)c2c(-c3cccc([N+](=O)[O-])c3)coc2C1,2.76%
18,CCOc1ccc(/C=C2/C=C(c3ccc(CC)cc3)OC2=O)cc1,4.74%
19,COc1ccc(Nc2ncc(C#N)c(Nc3ccccc3)c2C#N)cc1,0.67%
20,COc1ccc(-c2nnc(NC(=O)c3ccc(C(=O)c4ccccc4)cc3)s2)c(OC)c1,2.49%
21,CC(C)(C)c1ccc(CNC23CN4CN(CN(C4)C2)C3)cc1,-6.36%
22,O=C1C(=O)N2C(=C1C(=O)N1CCOCC1)c1ccccc1CC21CCCCC1,-1.52%
23,O=C(Nc1ccncc1)C(=O)c1cn(Cc2ccc(Cl)cc2)c2ccccc12,3.47%
24,CCCN(CCC)CC/N=c1/c(N2CCN(C(=O)OCC)CC2)c(O)c1=O,-1.44%
25,CCOc1ccc(N2C(=O)c3ccccc3C2=O)c(N)c1,0.526%

row,SMILES,% Inhibition @ 10 uM
1,CNC(=O)C1CCCN(S(=O)(=O)N2CCC3(CC2)OCCO3)C1 (centres unmarked),-5.93%
2,c1ccc(SC2=NN=C(c3ccccc3)Nc3ccccc32)cc1,4.12%
3,CCOc1cc(C(=O)Nc2ccccc2Br)cc(OCC)c1OCC,23.6%
4,Cc1ccc(/C=C(\NC(=O)c2ccccc2)C(=O)NCCc2cccc(F)c2)o1,2.46%
5,Cc1ccc(S(=O)(=O)NCc2nnc(N)s2)cc1,12%
6,Cc1ccccc1S(=O)Cc1ccc(C(=O)N2CCOCC2)o1 (centres unmarked),-3.09%
7,Cc1ccc(OCc2nnnn2-c2ccccc2)cc1,-2.85%
8,CC1=Nc2ncnn2C(c2ccc(OCc3ccccc3Cl)cc2)/C1=C(\O)OC(C)C (centres unmarked),2.25%
9,COCCCN(C(=O)Nc1cn(CC(C)C)c(=O)c2ccccc12)C(C)c1ccncc1 (centres unmarked),3.6%
10,Cc1ccc(C(=O)N2CC(C)N(C(=O)c3ccc(C)o3)CC2C)o1 (centres unmarked),-1.42%
11,CC(C(=O)NCCc1ccc(Cl)cc1)n1c(=O)c2cccn2c2cccnc21 (centres unmarked),-2.39%
12,CCCCCC(=O)NC(CC)C(=O)O (centres unmarked),-3.66% and -1.77%
13,O=C(Nc1cccc(Cl)c1)Nc1cc(C(F)(F)F)ccc1Cl,6.08%
14,Cc1ccc(N2CCN(CCCN3C(=O)C4CCCN4C3=O)CC2)cc1 (centres unmarked),-3.23%
15,CCOc1cccc(N2C(=O)CC(N3CCC(C(N)=O)(N4CCCCC4)CC3)C2=O)c1 (centres unmarked),1.27%
16,CCCc1cc(C(=O)NCc2ccc(F)cc2)no1,-3.77%
17,COc1ccc(/C=C2/SC(=O)N(CC(=O)Nc3ccccc3C)C2=O)cc1O,6.52%
18,COc1ccc(C2(C(N)=O)CCOCC2)cc1,-7.45%
19,CCOc1cc(/C=C2/SC(=O)NC2=O)ccc1O,0.343%
20,O=S(=O)(c1ccccc1)N1CCC(N2CCCCC2)CC1,-2.85%
21,CC(=O)N1CCN(Cc2ccc(F)cc2F)CC1,-3.8%
22,COc1cc(C2C(C(=O)c3ccc(F)cc3)=C(O)C(=O)N2c2nncs2)ccc1O (centres unmarked),-3.98%
23,O=C(Nc1ccc(S(=O)(=O)Nc2ccc(F)cc2)cc1)c1cccs1,-2.8%
24,CCc1ccc(-c2cn3c(n2)sc2cc(C(=O)NCCN4CCOCC4)ccc23)cc1,3.77%
25,O=C(CN1CCCCC1)N1N=C(c2ccc(Br)cc2)CC1c1nc2ccccc2[nH]1 (centres unmarked),8.82%

row,SMILES,% Inhibition @ 10 uM
1,O=C(O)c1cc2ccccc2c([N+](=O)[O-])c1O,17.5%
2,CCN(C(=O)Cc1ccc(OC)cc1)C1CCCCC1,0.215%
3,COc1cc2nc(S)n3nc(COc4ccccc4C)nc3c2cc1OC,1.23%
4,COc1ccc(NC(=O)C2(N(Cc3ccccc3)C(=O)Cc3n[nH]c(N)n3)CCCCC2)cc1,-2.75%
5,CC(C)c1ccccc1NC(=O)CN1C(=O)C(=O)c2ccccc21,0.161%
6,COc1c(S(=O)(=O)N2CCN(Cc3ccc4c(c3)OCO4)CC2)ccc(Cl)c1Cl,-5.19%
7,CC(C)(C)OC(=O)NC1c2ccccc2CSc2ccccc21 (centres unmarked),0.964%
8,CN(C)CCCNC1CC2CCC1C2 (centres unmarked),1.57%
9,COc1ccc(C(=O)Nc2ccc(S(=O)(=O)Nc3nccc(C)n3)cc2)cc1,0.993%
10,COCCNC(=O)c1oc2c(c1C)-c1n[nH]cc1CC2,-1.08%
11,CCn1cc(CNC(=O)C23CC4CC(CC(C4)C2)C3)cn1,0.873%
12,COc1ccc(OC)c(CN2CCN(C(=O)c3cc(OC)c(OC)c(OC)c3)CC2)c1,-1.57%
13,CN1C(=O)C(C2c3ccccc3Oc3c2c(=O)n(C)c(=O)n3C)C(=O)N(C)C1=O (centres unmarked),4.15%
14,CCCOc1cccc(C2c3c(oc4ccccc4c3=O)C(=O)N2Cc2ccc3c(c2)OCO3)c1 (centres unmarked),0.415%
15,CC1CCCC(C)N1CC(O)COc1ccc(N)cc1 (centres unmarked),0.385%
16,CC(/C=C1\N=C(c2ccccc2C)OC1=O)=C\c1ccccc1,-2.6%
17,O=C(c1ccco1)N(Cc1cccs1)C1CCS(=O)(=O)C1 (centres unmarked),-0.622%
18,CC1=CCC2(CO)COC(c3ccccc3O)C1C2 (centres unmarked),1.29%
19,CC(=O)C1=C(O)C(=O)N(CCCN2CCOCC2)C1c1ccc(Br)cc1 (centres unmarked),-6.47%
20,Cc1ccc(C2CC(C(F)(F)F)n3nc(C(=O)N(C)Cc4cnn(C)c4C)cc3N2)cc1 (centres unmarked),1.71%
21,CC1(C)CC(=O)C2=C(C1)N(c1cccnc1)C(N)=C(C#N)C2c1cccs1 (centres unmarked),-2.77%
22,Cc1ccc(S(=O)(=O)c2nnn(-c3ccc(Cl)cc3)c2C)cc1,-0.326%
23,CCOc1ccc(-c2nc(C#N)c(NCCCN(CC)CC)o2)cc1,-3.23%
